The values that follow come from PMC4336329 (PLoS ONE, 2015).

The campaign covered roughly 310,000 compounds. About 2,200 (0.71%) showed an effect of 50% or more. The effect is printed as a negative number. This is one part of the list.

The target in this test is human ether-à-go-go-related gene (hERG) potassium channel (human, UniProt Q12809). In words: primary screen, population patch clamp on CHO cells stably expressing hERG.
Sequence of human ether-à-go-go-related gene (hERG) potassium channel (Q12809 whole entry, looked up): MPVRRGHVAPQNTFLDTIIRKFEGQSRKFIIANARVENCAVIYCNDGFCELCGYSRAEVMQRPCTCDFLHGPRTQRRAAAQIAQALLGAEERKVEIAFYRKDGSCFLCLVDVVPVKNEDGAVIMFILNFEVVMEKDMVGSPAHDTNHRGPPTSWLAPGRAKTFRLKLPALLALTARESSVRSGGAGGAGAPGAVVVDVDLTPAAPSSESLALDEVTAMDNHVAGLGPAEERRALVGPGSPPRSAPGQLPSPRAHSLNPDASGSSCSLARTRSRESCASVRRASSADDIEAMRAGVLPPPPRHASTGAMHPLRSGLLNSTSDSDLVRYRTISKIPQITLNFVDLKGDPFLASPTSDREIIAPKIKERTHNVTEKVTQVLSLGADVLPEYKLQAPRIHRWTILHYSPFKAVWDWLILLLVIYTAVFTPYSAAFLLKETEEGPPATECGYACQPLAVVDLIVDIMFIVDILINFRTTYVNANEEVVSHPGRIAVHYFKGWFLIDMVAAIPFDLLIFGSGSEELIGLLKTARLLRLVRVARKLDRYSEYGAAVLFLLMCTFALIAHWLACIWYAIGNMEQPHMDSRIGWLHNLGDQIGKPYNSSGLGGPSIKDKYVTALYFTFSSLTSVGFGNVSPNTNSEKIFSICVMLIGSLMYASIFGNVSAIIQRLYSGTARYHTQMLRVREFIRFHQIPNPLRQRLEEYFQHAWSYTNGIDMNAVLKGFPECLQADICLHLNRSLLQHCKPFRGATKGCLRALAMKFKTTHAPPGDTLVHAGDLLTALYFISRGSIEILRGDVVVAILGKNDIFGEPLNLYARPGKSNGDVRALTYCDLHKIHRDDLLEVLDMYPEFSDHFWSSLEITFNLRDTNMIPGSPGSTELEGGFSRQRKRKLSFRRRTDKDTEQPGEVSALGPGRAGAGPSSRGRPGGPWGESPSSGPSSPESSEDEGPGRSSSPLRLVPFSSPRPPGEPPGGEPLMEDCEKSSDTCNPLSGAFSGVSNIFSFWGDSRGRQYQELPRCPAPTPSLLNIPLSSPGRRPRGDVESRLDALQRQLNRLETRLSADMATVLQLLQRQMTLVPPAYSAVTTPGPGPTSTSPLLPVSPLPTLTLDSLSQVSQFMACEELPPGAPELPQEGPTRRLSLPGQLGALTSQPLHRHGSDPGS
For the compound `O=C(O)CCCCCNC(=O)c1cccc(Br)c1`, the “hERG current change (%, negative = inhibition) at 1uM” value is 8.09%.
As to `CCOC(=O)Cn1c(=O)oc2cc(S(=O)(=O)NC(C)c3ccccc3)ccc21` (stereo not drawn), the “hERG current change (%, negative = inhibition) at 1uM” value is recorded as 0.367%.
For `NC1=NC(=O)/C(=C/c2ccsc2)S1`, the “hERG current change (%, negative = inhibition) at 1uM” value came to 3.53%.
`CCOc1ccc(CN(C)C(=O)c2ccc3c(c2)NC(=O)C(C)S3)cc1OC` (stereo not drawn): the “hERG current change (%, negative = inhibition) at 1uM” value was -8.71%.
For the compound `CSc1ccccc1C(=O)Nc1ccccc1C(=O)NC(C)C`, the “hERG current change (%, negative = inhibition) at 1uM” value was 11.2%.
For the compound `C/C(=N\NC(=S)NCCc1ccccc1)c1ccc(C)cc1`, the “hERG current change (%, negative = inhibition) at 1uM” value is on record as 8.12%.
For the compound `CCn1nc(C)c(CN2CCN(Cc3ccc(OC)c(C)c3C)C(CCO)C2)c1C` (stereo not drawn), the “hERG current change (%, negative = inhibition) at 1uM” value is -13.6%.
Take `CCOC(=O)CC(NCc1ccc(OC)c(OCC)c1)c1ccc(C)cc1.Cl` (stereo not drawn): the “hERG current change (%, negative = inhibition) at 1uM” value is listed as -4.4%.
Under `Cc1nnsc1-c1c(C(=O)O)c(C)nn1-c1ccc(OC(F)(F)F)cc1` stands 14.5%; under `C(=N\N1CCN(c2ccccn2)CC1)/c1cccc2ccccc12`, 10.8%; under `O=C(CC1Nc2ccccc2NC1=O)NCc1cccnc1` (stereo not drawn), 6.8%.
Under `N#CCCn1cc(C(=O)NCc2ccccc2)c(-c2cccs2)n1` stands 18.3%; under `COc1cc(C(=O)NCCNc2nc3cc(C)ccc3cc2C#N)cc(OC)c1OC`, 9.24%.
Under `CN(C(=O)c1cccc(C#N)c1)c1nnc(C2CCCO2)s1` (stereo not drawn) stands 12.8%.
With `CN(Cc1nc(Cc2ccccc2F)no1)[C@@H]1CS(=O)(=O)C[C@H]1O`, the “hERG current change (%, negative = inhibition) at 1uM” value was -18.6%.
Under `Cc1ccc(S(=O)(=O)CCC(=O)Nc2nc(-c3ccccn3)cs2)cc1` stands 18.1%; under `O=C(C1CCN(c2nc(-c3ccccc3)nc3c2CCC3)CC1)N1CCC(O)CC1`, -6.37%.
For `O=C(NCCC1=CCCCC1)c1cc2ccccc2oc1=O`, the “hERG current change (%, negative = inhibition) at 1uM” value stood at 11.7%.
Under `O=C(NCc1ccc(Cl)cc1)c1cc([N+](=O)[O-])ccc1Cl` stands 15.8%.
As for `CCOc1ccc(/C(O)=C2/C(=O)C(=O)N(CCN(C)C)C2c2ccccc2)cc1Cl` (stereo not drawn), the “hERG current change (%, negative = inhibition) at 1uM” value is on record as -0.667%.
For the compound `COc1ccc(SC[C@H](CC(C)C)N2CCN(C)CCC2=O)cc1`, the “hERG current change (%, negative = inhibition) at 1uM” value is given as -9.72%.
Turning to `Cc1cc2ccccc2c(=O)n1CC(=O)NCc1ccco1`, the “hERG current change (%, negative = inhibition) at 1uM” value is on record as 18.5%.
With `Cc1nc2n[nH]c(N)c2c2c1CCCC2`, the “hERG current change (%, negative = inhibition) at 1uM” value was 9.17%.
Regarding `CC(=O)N1CCc2cc(S(=O)(=O)NC(Cc3ccccc3)C(=O)NCCN3CCCCC3C)ccc21` (stereo not drawn), the “hERG current change (%, negative = inhibition) at 1uM” value was determined as 6.91%.
`CCNC(=O)CC1C(=O)N(c2ccc(F)cc2)C(=O)N1CCc1ccc(OC)cc1` (stereo not drawn): the “hERG current change (%, negative = inhibition) at 1uM” value is listed as -10.2%.
As for `COc1ccccc1C1=NCc2nnc(C)n2-c2ccc(Cl)cc21`, the “hERG current change (%, negative = inhibition) at 1uM” value is on record as 12.4%.
As to `CCN(CC)CCN1C(=O)c2ccccc2NC1c1cccc(F)c1` (stereo not drawn), the “hERG current change (%, negative = inhibition) at 1uM” value was -48.3%.
Under `COCc1cc(C)nc2sc3c(=O)n(-c4cccc5ccccc45)nnc3c12` stands 6.97%; under `CCN1C(=O)/C(=C/c2cccs2)SC1=Nc1ccc(OC)cc1`, -2.52%; under `COc1ccc(-n2c(/C=C/c3ccc4c(c3)OCO4)nc3ccccc3c2=O)cc1`, -9.35%.
Under `CNC(=O)c1[nH]cnc1C(=O)Nc1ccc(OC)cc1` stands 18.8%; under `COc1cccc(OC)c1OCCN1CCCC1`, 17.7%; under `C=CCNC(=S)/N=c1/scc(C)n1C`, 0.655%.
For `CC(C)(C)C(=O)Nc1nnc(CC(=O)NCc2ccccc2)s1`, the “hERG current change (%, negative = inhibition) at 1uM” value is 5.42%.
Regarding `CC1CN(C(=O)CCC(=O)N2CCN(c3ccccn3)CC2)c2ccccc2O1` (stereo not drawn), the “hERG current change (%, negative = inhibition) at 1uM” value was 9.88%.
With `Cc1cc(=O)oc2cc(OCC(=O)NC3CCCC3)ccc12`, the “hERG current change (%, negative = inhibition) at 1uM” value was -18.4%.
For `COc1ccc(C2=NOC(C(=O)Nc3ccc(C(C)=O)cc3)C2)cc1OC` (stereo not drawn), the “hERG current change (%, negative = inhibition) at 1uM” value is on record as -1.99%.
On to `O=C(Nc1c2c(nc3ccccc13)CCCC2)c1ccccc1Br`, for which the “hERG current change (%, negative = inhibition) at 1uM” value is reported as 8.91%.
On to `CCCn1c(N)c(C(=O)COc2ccc(Br)cc2F)c(=O)n(C)c1=O`, for which the “hERG current change (%, negative = inhibition) at 1uM” value is reported as 0.814%.
Consider `Cc1cc2nc(Sc3c([N+](=O)[O-])nc(C)n3Cc3ccccc3)[nH]c2cc1C`, for which the “hERG current change (%, negative = inhibition) at 1uM” value was found to be 11%.
For `O=C(COC(=O)/C=C/c1ccc(OC(F)F)cc1)NC1CCCCCCC1`, the “hERG current change (%, negative = inhibition) at 1uM” value was 9.31%.
`O=C(/C=C/c1ccc2ccccc2n1)N1CCN(S(=O)(=O)c2ccc(F)cc2)CC1`: the “hERG current change (%, negative = inhibition) at 1uM” value is listed as -5.65%.
For the compound `Cc1nn(-c2ccc(Cl)c(Cl)c2Cl)c(=O)c2ccccc12`, the “hERG current change (%, negative = inhibition) at 1uM” value is -1.02%.
Regarding `O=C(NCc1ccco1)C12CC3CC(C1)CC(C(=O)NCc1ccco1)(C3)C2`, the “hERG current change (%, negative = inhibition) at 1uM” value is on record as 7.89%.
Consider `Cc1ccc2[nH]c(=O)cc(C(=O)OCC(=O)c3ccc(F)cc3)c2c1`, for which the “hERG current change (%, negative = inhibition) at 1uM” value amounted to 3.99%.
